# PubChem BioAssay (NCATS)
# Several values for one entry are separate records, joined by “and”; a condition that tells them apart may be missing. Equal values may be shown once. Inconclusive results, whose numbers are uncertain, are shown with a selection of clear calls. Activity calls are given as the source filed them. The call rests on the fitted dose curve; in most records, active means well fitted curve in either direction with a large enough effect (not every such curve was filed as active); inconclusive means small, poorly fitted or top-dose-only effect, or another doubt; inactive means flat fitted curve, though single readings scatter.
# Test: NFAT Signaling Pathway (AID 444);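 further: carbachol stimulus at about its EC50 of 1 µM final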
# Details: Jurkat NFAT-bla M1, carbachol, beta-lactamase ratio, 5 h; at 17.2 µM (top of the series) unless noted
# Summary of the method: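 Read-out: CCF4 FRET ratio (460 nm/530 nm) after 1 h RT dye loading, used for %activity and AC50 from titration series. Cells: Jurkat NFAT-β-lactamase/M1 line, treated with compound plus 1 uM carbachol for 5 h, 37 °C.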
# On the % scale 0 is the no-effect control and ±100 the full control effect.
row,Structure (SMILES),"activity change, negative = inhibition"
1,O=C(O)CCC(=O)N1CCC[C@H]1C(=O)O,inactive: 7.11% [at 38 µM]
2,CCCCC[C@H](O)CCCC(=O)O,inactive: -3.23% [at 38 µM]
3,O[C@@H](c1cc(C(F)(F)F)nc2c(Cl)cc(Cl)cc12)[C@@H]1CCCCN1,inconclusive: 50.6% [activator] [at 7.69 µM]
4,N/N=C1/c2ccccc2N[C@H]1OC(=O)Nc1ccccc1,inconclusive: -37.6% [inhibitor] [at 7.69 µM]
5,C[N+](C)(C)c1cc2c(nn1)Nc1ccccc1S2,inconclusive: -63.6% [inhibitor] [at 7.69 µM]
6,C[C@@H]1CCCN(CP(=O)(c2ccccc2)c2ccccc2)C1,inactive: -1.11% [at 7.69 µM]
7,C[C@@]12CC[C@H]3[C@H](CC=C4C[C@@H](O)CC[C@@]43C)[C@@H]1CC[C@@H]2N(CCO)CCO,inconclusive: -63.7% [inhibitor] [at 7.69 µM]
8,Cc1cc2nc([C@H](C)C(=O)c3ccc(Cl)cc3)c(=O)[nH]c2cc1C,inactive: -5.22% [at 7.69 µM]
9,COC(=O)[C@H]1[C@H]2C[C@H]3c4[nH]c5ccccc5c4CCN3C[C@@H]2CC[C@@H]1O,inconclusive: -39.6% [inhibitor] [at 38 µM] and inactive: -14.1% [at 38 µM]
10,Cc1cc(Cc2cc(Cc3cc(C)cc(C(C)(C)C)c3O)c(C)cc2C)c(O)c(C(C)(C)C)c1,inconclusive: -43.4% [inhibitor] [at 7.69 µM]
11,CCN(CC)CC[n+]1ccc2c(C)c3[nH]c4ccccc4c3c(C)c2c1,inconclusive: -67.6% [inhibitor] [at 7.69 µM]
12,OC[C@@H]1NC[C@@H](O)[C@H]1O,inactive: 8.18% [at 38 µM]
13,O=C(c1cnccn1)N1CCC2(CCCN(Cc3ccccc3)C2)CC1,inconclusive: -65.7% [inhibitor] [at 7.69 µM]
14,Cc1ncn(-c2ccccc2O)c1C,inconclusive: -30.7% [inhibitor] [at 7.69 µM]
15,Cn1cccc1C(=O)N1CCC2(CCN(Cc3ccc(C#N)cc3)CC2)CC1,inconclusive: -58.7% [inhibitor] [at 7.69 µM]
16,COc1ccccc1CN1CCCC2(CCN(C(=O)c3ccncc3)CC2)C1,inconclusive: -68.4% [inhibitor] [at 7.69 µM]

row,Structure (SMILES),"activity change, negative = inhibition"
1,O=C(c1ccco1)N1CCC2(CCCN(c3ccncc3)C2)CC1,inconclusive: -62.5% [inhibitor] [at 7.69 µM]
2,COc1ccccc1CN1CCCC2(CCN(C(C)=O)CC2)C1,inconclusive: -61% [inhibitor] [at 7.69 µM]
3,C[C@H](CN(C)C)C(O)(c1ccccc1)c1ccccc1,inconclusive: -59.4% [inhibitor] [at 7.69 µM]
4,CCCc1cc(=O)oc2c(CN3CCCC3)c(O)c(Cl)cc12,inconclusive: 37.2% [activator]
5,Cc1cccc(C)c1OC[C@@H](N)C(C)C,inactive: 4.41% [at 38 µM]
6,O[C@H](COc1ccccc1)CN1CCCCC1,inactive: 2.42% [at 7.69 µM]
7,c1ccc2sc(SCCSc3nc4ccccc4s3)nc2c1,inactive: -22.4% [at 7.69 µM]
8,Oc1ccc([C@@H]2CNCc3sccc32)cc1O,inactive: 8.54% [at 38 µM]
9,COc1ccccc1CN1CCCC2(CCN(C(=O)c3cccn3C)CC2)C1,inconclusive: -62.8% [inhibitor] [at 7.69 µM]
10,O[C@@H](c1cc([C@@]23C[C@H]4CC[C@@H]2C[C@H](C4)C3)nc2c(Cl)cc(Cl)cc12)[C@@H]1CCCCN1,inconclusive: 43.9% [activator] [at 7.69 µM]
11,O=C(c1cnccn1)N1CCC2(CC1)CCN(C(c1ccccc1)c1ccccc1)CC2,inactive: -20.1% [at 7.69 µM]
12,CN(C)Cc1cc(C(F)(F)F)ccc1C(O)(c1ccccc1)c1ccccc1,inconclusive: -73.8% [inhibitor] [at 7.69 µM]
13,C[N+](C)(CCCOc1ccccc1)c1ccccc1,inactive: -17.9%
14,CC1(C)N=C(N)N=C(N)N1c1cccc(OCc2cccc([N+](=O)[O-])c2)c1,inconclusive: -47.1% [inhibitor] [at 7.69 µM]
15,Cc1ccc(C2=C(Cl)C(=O)C(c3ccc(C)cc3)=C(Cl)C2=O)cc1,inconclusive: -55.5% [inhibitor] [at 7.69 µM]
